# PubChem BioAssay AID624296 (National Center for Advancing Translational Sciences (NCATS), 2012)
# Hit rate of the full screen: of about 350,000 compounds, about 9,900 (2.8%) were called active. Inconclusive results, whose numbers are uncertain, are shown with a selection of clear calls. Calls follow the shape of the dose curve; as a rule, active = well fitted activation curve with a large enough effect; inconclusive = small, poorly fitted or top-dose-only effect; inactive = no such curve, though single readings can be large or run the other way. Potencies of inconclusive entries are left out as doubtful fits.
# Assay: A quantitative high throughput screen for small molecules that induce DNA re-replication in MCF 10a normal breast cells. Also: nearly all actives have a fitted effect of over 50% in size. As to activity, positive = re-replication: % of control where 0% means no effect.
# Details: MCF 10A DNA re-replication, Hoechst nuclear intensity, 48 h; activity, positive = re-replication: at 46.1 µM (top of the series)
# Potency is read from the fitted curve at half-maximal effect; tags tell the direction and shape of the fitted curve.
SMILES,Potency,"activity, positive = re-replication"
CSc1ccc(N2CCN(CCCNC(=O)Nc3ccccc3F)CC2)cc1,"inconclusive [activator, single point]",–
Clc1ccc(OCCCCN2CCCCC2)cc1,"inconclusive [activator, single point]",–
CCOc1ccccc1NC1=CC(=O)CC(c2ccccc2)C1 (centres undefined),"inconclusive [activator, single point]",–
Oc1ccccc1/C=N/NC(=S)NC1CC2CC1C1C=CCC21 (centres undefined),active: 20.6 µM,–
Cc1cccc(N2CCN(C(=O)CCc3nc4ccccc4[nH]3)CC2C)c1 (centres undefined),–,inactive: -3.45%
O=C(O)c1ccc(N/N=C/c2cccc(C(F)(F)F)c2)cc1,"inconclusive [activator, full curve, poor fit]",–
CCOc1ccc(NC(=O)CCN2C(=S)NC(C)(C)CC2C)cc1 (centres undefined),–,inactive: -0.237%
CN(c1ccc(C(=O)N2CCCCC2)cc1)S(C)(=O)=O,"inconclusive [activator, partial curve, poor fit]",–
CCCCCCC(=O)N/N=C/c1ccc(Br)cc1,"inconclusive [activator, single point]",–
CNC(=O)c1cc2ccccc2o1,–,inactive: -0.992%
O=S(=O)(c1cccs1)N1CCN(CC(O)COC2CCCc3ccccc32)CC1 (centres undefined),–,inactive: 2.26%
CCC(C)(C)c1ccc(OCCCC[n+]2cccc(C)c2)c(C(C)(C)CC)c1,"inconclusive [activator, partial curve, poor fit]",–
O=C1CCc2cc(S(=O)(=O)Nc3cccc(F)c3)cc3c2N1CC3,"inconclusive [activator, partial curve]",–
Cc1nc2ccc3nc(NC(=O)C4COc5ccccc5O4)sc3c2s1 (centres undefined),"inconclusive [activator, partial curve, poor fit]",–
COc1ccccc1-c1noc(-c2ccncc2)n1,–,inactive: 12.5%
COc1ccc(S(=O)(=O)NCC2CCCN(Cc3ccccc3C)C2)cc1 (centres undefined),"inconclusive [activator, single point]",–
C=CCNc1oc(-c2cccc(Cl)c2)nc1C#N,"inconclusive [activator, single point]",–
CN(C)C(=O)CCc1ccc2c3c([nH]c2c1)[C@]1(CCC2CCCC2)[C@@H](C(=O)N2CCOCC2)C[C@H](CC(=O)NCCC2=CCCCC2)C(=O)N1CC3,"inconclusive [activator, partial curve, poor fit]",–
CCCCCCCC(=O)N/N=C/c1ccc([N+](=O)[O-])o1,"inconclusive [activator, single point]",–
Cc1csc(=O)n1CC(=O)OCC(=O)c1c(N)n(C)c(=O)n(C)c1=O,–,inactive: -2%
COc1cccc(/C=C(\CC(=O)O)c2nc3ccccc3s2)c1,–,inactive: 0.335%
CN(C)N1C(=O)CC(N2CCCC2)C1=O (centres undefined),"inconclusive [activator, partial curve, poor fit]",–

SMILES,Potency,"activity, positive = re-replication"
O=C(/C=C/c1ccc([N+](=O)[O-])s1)N1CCCCC1,"inconclusive [activator, single point]",–
CS(=O)(=O)c1ccc(Cl)c(NC(=O)c2cc(=O)[nH]c3ccc(S(=O)(=O)N4CCOCC4)cc23)c1,–,inactive: -0.797%
Cc1c(C)c2ccc(OC(C)C(=O)N3CC[C@@]4(O)CCCC[C@H]4C3)cc2oc1=O (some centres undefined),"inconclusive [activator, single point]",–
CN(C)S(=O)(=O)c1ccc2nnn(OCC(=O)NC3CCS(=O)(=O)C3)c2c1 (centres undefined),–,inactive: -0.862%
CCOc1ccc(C(c2c(NC(=O)c3ccccc3)sc(C)c2C)N2CCN(C)CC2)cc1 (centres undefined),"inconclusive [activator, full curve, poor fit]",–
COc1cc(C2C(C#N)=C(N)Oc3cc4c(cc32)OCO4)cc(OC)c1OC (centres undefined),"inconclusive [activator, full curve, poor fit]",–
Nc1nccc(NCCSCc2ccccc2)n1,"inconclusive [activator, partial curve]",–
NS(=O)(=O)c1ccc(CCNC(=O)CSc2nc3ccccc3c(=O)n2CCC(=O)N2CCCCC2)cc1,active: 0.731 µM,–
CCCn1c(=O)c(C(=O)NNC(=O)c2ccccc2Cl)c(O)c2ccccc21,"inconclusive [activator, single point]",–
COc1cccc(NC(=O)CN(C)C(=O)CCN2C(=O)C3CC=CCC3C2=O)c1 (centres undefined),"inconclusive [activator, partial curve, poor fit]",–
Cc1c(Cl)c([N+](=O)[O-])nn1CCCC(=O)Nc1sc2c(c1C(N)=O)CCC(C)C2 (centres undefined),–,inactive: -1.63%
Cc1cccc(OCCSc2nc3c([nH]2)c(=N)ncn3Cc2ccccc2)c1,"inconclusive [activator, partial curve, poor fit]",–
COc1cc(C2CC(=O)Nc3n[nH]c(-c4ccccc4)c32)cc(OC)c1OC (centres undefined),"inconclusive [activator, partial curve, poor fit]",–
O=C1c2ccc([N+](=O)[O-])cc2S(=O)(=O)N1Cc1ccccc1,"inconclusive [activator, single point]",–
COc1ccc(/C=C2/SC(=S)N(CCCC(=O)Nc3cccc(O)c3)C2=O)cc1,"inconclusive [activator, single point]",–
CCn1nc(C)c(Br)c1-c1nc(-c2cccc(C)c2)no1,"inconclusive [activator, partial curve, poor fit]",–
CCC(=O)NC(=S)Nc1ccccc1OC,–,inactive: -6.96%
CC[C@]1(C(=O)OC)[C@H]2C(=O)N(C)C(=O)[C@H]2[C@H]2CN=C(SCC3CC3)N21,"inconclusive [activator, full curve, poor fit]",–
COc1ccc(NC(=O)C(NC(=O)c2ccc(C)cc2)c2ccccc2)cc1 (centres undefined),–,inactive: 9.6%
CNc1c(-n2cc(C(=O)OC)c(C(=O)OC)c2C(=O)OC)c(=O)n(C)c(=O)n1C,–,inactive: 0.72%
COc1cc(OC)cc(C(=O)Nc2ccccc2-c2nnn(CC(=O)Nc3cc(C)on3)n2)c1,–,inactive: 1.33%
CCC(CO)Oc1cc(NCc2ccc(C(=O)O)cc2)c2ncn(C(C)C)c2c1 (centres undefined),"inconclusive [activator, partial curve, poor fit]",–
